Experimental data taken from the supplement of paper PMC7335073.
The full ranking holds about 4,100 sequences; the median of “relative CpG methylation activity (normalised to average over all NNNCGNNN flanks)” is about 0.94, and the highest 2% start at about 1.9. This is one part of the list.

target: DNMT3B catalytic domain (mouse) (UniProt O88509); test: relative CpG methylation activity (normalised to average over all NNNCGNNN flanks) (relative (1 = mean)); higher = more methylation of the central CpG; conditions: system: in vitro, murine catalytic domain; CpG state: hemimethylated substrate pool; residues: 558-859
Sequence of UniProt O88509 (O88509 558-859): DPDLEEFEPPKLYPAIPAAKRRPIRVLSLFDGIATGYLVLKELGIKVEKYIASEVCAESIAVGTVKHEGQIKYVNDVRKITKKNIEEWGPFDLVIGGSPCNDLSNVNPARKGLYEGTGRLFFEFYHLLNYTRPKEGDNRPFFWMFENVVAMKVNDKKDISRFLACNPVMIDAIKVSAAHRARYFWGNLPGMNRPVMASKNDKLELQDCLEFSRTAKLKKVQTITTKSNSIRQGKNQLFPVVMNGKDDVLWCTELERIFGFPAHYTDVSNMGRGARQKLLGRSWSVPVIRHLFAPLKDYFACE
Method in brief: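 Each experiment was done in two independent repeats, using pooled dsDNA substrates with a central CpG flanked by 10 random nucleotides, methylated for 60 min at 37 °C by the murine DNMT3A or DNMT3B catalytic domain with 0.8 mM S-adenosyl-L-methionine in HEPES pH 7.5 buffer. After bisulfite conversion and PCR, the DNA was read by Illumina sequencing. Methylation was averaged per context, defined by three bases on each side of the CpG. Relative methylation activity is each context's average methylation over the mean of all contexts.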

Sequence | relative CpG methylation activity
GGTCGGCA | 1.6
GATCGCGC | 0.626
ATCCGGCA | 1.6
CGACGGGA | 1.08
GTACGCGT | 1.4
TCACGTAG | 0.92
CAACGATC | 1.94
AGTCGAGA | 1.75
TCACGTCG | 1.13
GACCGGTA | 0.914
GTACGATG | 1.48
ACGCGTGA | 0.523
GTACGACA | 1.65
CAACGTGC | 0.968
GGCCGATT | 1.08
CTCCGTCC | 1.45
GTGCGGAA | 0.787
TTACGGTT | 1.85
GAGCGACT | 0.768
TTCCGTTC | 1.42
TTTCGAGA | 1.76
TACCGTCT | 0.708
CATCGGAA | 0.839
CCGCGTGT | 0.524
TAACGGCA | 1.81

Sequence | relative CpG methylation activity
GGGCGCGG | 0.379
AGACGCAC | 0.875
CCTCGCCA | 1.05
CCACGTGG | 0.387
AGACGCGT | 1.03
CGGCGATT | 0.829
CCACGTGC | 0.938
CGTCGATT | 1.22
ATACGCGA | 1.04
TCGCGGGC | 0.971
TAACGTGC | 0.966
GCTCGACT | 1.22
GCCCGAAC | 1.35
CTACGGCG | 2.04
ATTCGAGA | 1.83
CTTCGTAT | 0.699
TTTCGTGA | 0.347
TAACGAGC | 1.81
GGGCGGGC | 0.852
CTACGTGA | 1.01
TAACGACT | 1.34
CCCCGCGT | 0.602
AAACGAGC | 1.71
ACACGTCT | 1.16
TTACGAGA | 1.84

Sequence | relative CpG methylation activity
TGTCGAAA | 1.27
TTCCGGTA | 1.33
TATCGTGC | 0.651
CGGCGTGT | 0.302
GGTCGCTT | 0.644
GGCCGCCG | 0.495
AAACGATC | 1.89
AGACGTAG | 0.728
GAGCGCGT | 0.502
CTCCGATC | 1.67
GCTCGTTA | 0.419
TCTCGACC | 1.03
AGCCGGCG | 0.999
ACACGACA | 1.42
TTCCGTGT | 0.344
CCTCGCAC | 0.721
AAACGCTC | 1.53
CTTCGGAC | 1.04
GCCCGGAA | 0.765
AAACGGAC | 1.27
CCTCGGGT | 1.5
AATCGTCC | 0.952
TGCCGAAA | 0.874
ATTCGAGC | 1.55
AGGCGTTC | 0.514

Sequence | relative CpG methylation activity
TTTCGGGT | 2.02
ACGCGTTT | 0.514
CCACGATC | 1.74
GTACGGAA | 1.46
TTGCGCAG | 0.422
GTACGGTT | 1.73
CAGCGCTC | 0.807
CTTCGCGA | 0.724
ACGCGGTA | 0.86
CGCCGAGT | 1.04
CTACGGTC | 1.85
GAACGCTA | 1.07
TCCCGTTG | 0.343
GGTCGAGA | 1.53
AGCCGGCC | 1.03
ACTCGAGG | 1.05
TAGCGAAT | 0.756
CTGCGACC | 1.28
TGCCGTCC | 0.701
GCACGCCC | 1.28
GGTCGGAG | 0.478
CAGCGGAA | 0.514
TCCCGCAC | 0.746
ACCCGGGA | 1.28
GGCCGTTA | 0.262

Sequence | relative CpG methylation activity
TGCCGGCA | 1.09
CAGCGCGA | 0.392
AAACGGGA | 1.64
ACCCGTAG | 0.505
AAGCGGCA | 1.15
GGCCGAAG | 0.567
TGACGAGC | 1.55
CCGCGCGA | 0.545
GGACGCAG | 0.536
GTACGTTA | 1.09
TGCCGGAG | 0.172
TGACGCGG | 0.734
GGCCGAAT | 0.721
GAACGTCT | 1.26
TCCCGTCA | 0.902
AATCGAGG | 1.21
GAACGACC | 1.25
CTACGATG | 1.83
GTCCGTTC | 1.25
AACCGGAC | 0.54
CTCCGACA | 1.69
CGACGTGT | 0.313
GCGCGTAC | 0.753
ATCCGTTG | 0.439
GCTCGAAG | 0.715

Sequence | relative CpG methylation activity
TCACGAAG | 1.09
ATACGATA | 2.03
CTCCGCCA | 1.15
CAGCGTTT | 0.45
CCCCGCGA | 0.66
CCTCGATG | 1.19
ACACGCTG | 1.11
CGCCGTCC | 0.86
AGTCGTGA | 0.198
AGCCGAGT | 0.765
GGTCGGAT | 0.427
GCGCGCAA | 0.357
AAACGCAG | 0.838
TTACGACG | 1.68
TGTCGGCT | 1.48
CCACGCGC | 1.32
TAGCGTCT | 0.609
CGACGCTT | 0.811
AATCGGCC | 1.88
AGGCGTAA | 0.335
CCACGGCA | 1.74
ACCCGACG | 1.21
AGCCGTTG | 0.111
GGGCGGGG | 0.765
TGACGTAT | 0.762

Sequence | relative CpG methylation activity
CACCGAAA | 1.15
AGACGTCA | 0.88
AATCGTGT | 0.159
ACTCGGCT | 1.95
GGCCGGCC | 0.963
ATGCGACA | 1.19
CTACGTCC | 1.76
GGGCGTCC | 0.743
ACACGGGT | 1.53
GACCGGCA | 1.1
ACACGCCC | 1.48
GATCGCAG | 0.309
GTTCGTTA | 0.328
GGCCGAGA | 1.1
AATCGTAT | 0.334
GATCGCCA | 0.73
TGTCGGAA | 0.694
GACCGGAA | 0.676
CTTCGACA | 1.71
ATGCGCAC | 0.928
TATCGCGT | 0.595
GCCCGGGC | 1.54
